Read counts are not given, so values of variants with three or more changes are uncertain.
B1: LINE1-full (parent)
chain: UACGUAGGUGGUUUUCCCCUGAUAGUGCUAAGGGGGCCUGGAAGUUUGGACUGGGCAGAGCUCAACACAGCGUGGCAAAGUGGCUGUGGCUAGACUGCCUCUCUGGAUUCCUCGUCACUCAGCAGGGCAUCUCUGAGAGAAAUGCC

Variants of: B1
Assay: self-cleavage, relative activity (ratio to wild type); higher = more cleavage; in vitro, sequencing; the parent is a self-cleaving ribozyme

| Variant | self-cleavage |
| --- | --- |
| U13C G70A A94G U112A U119C U134C | 0.28 |
| U13C C66G A92G U134C G139U | 0.07 |
| U13C A78G U87C A94G | 0 |
| U13C U29C A64U U109C U143C | 0.76 |
| U13C C17U A64G A142G | 0.28 |
| U13C C133U A138G | 0.86 |
| U13C A94G C120U | 0.16 |
| U13C U23C A94G U119C | 0 |
| U13C U20A U81A G82A | 2.73 |
| U13C A79G A124G | 1.15 |
| U13C G54U A124U A136G | 1.03 |
| U13C U14A U52A U119C A142U | 1.16 |
| U13C G49U A140G | 1.18 |
| U13C U26C G32C A138G A140U | 1.1 |
| U13C G53A U115C U132C | 1.46 |
| U13C U20C A50C A79G C128U U132A | 1.38 |
| U13C U20C A22U A78G A141G | 0.89 |
| U13C U20C A57G C99U | 0.48 |
| U13C C16U U104C A129G U134A U143C | 1.84 |
| U13C C56U U96A U108C | 0.05 |
| U13C U20C U23A | 0.23 |
| U13C U14C C131U | 1.53 |
| U13C U23C G53U C76A | 0.96 |
| U13C G32A A94G | 0.36 |

| Variant | self-cleavage |
| --- | --- |
| U13C G49U U143A | 0.85 |
| U13C U20C A64U A141U | 0.89 |
| U13C G54C A142U U143C | 0.35 |
| U13C C38A A92G | 0.12 |
| U13C U23C U87C A124U | 0.41 |
| U13C U29C A129G | 1.25 |
| U13C U20A U115C U143A | 0 |
| U13C U20C A42G A138U | 1.17 |
| U13C G40C A69U U81G U85C A124G A138G | 0 |
| U13C A92G U104A A117G | 0.2 |
| U13C U23C U45C G55U C103U | 0.2 |
| U13C G34U U62A A77G A78G U100A | 0.17 |
| U13C U26C A30G G80A C84U U96C | 0.21 |
| U13C U29A G53U A59G A64G A78G U85C | 0 |
| U13C C18U U20C A65G | 0.09 |
| U13C U14C A78G | 0.66 |
| U13C U29A A121G | 0.88 |
| U13C G33A U96A | 0.19 |
| U13C U14C C38U U46C A140G | 0.84 |
| U13C G54C U62A A64G | 0.56 |
| U13C G54A A140G | 0.32 |
| U13C C51U U108C | 2.76 |
| U13C G75A A77G U102C A138U | 0.9 |
| U13C U15C A67U | 0.08 |

| Variant | self-cleavage |
| --- | --- |
| U13C U29A U52C U112C C128U | 0.68 |
| U13C U26A U87C U102C | 0.35 |
| U13C U29C U102A A124U | 0.69 |
| U13C G33A A50G A136G | 1.09 |
| U13C U23C A141G | 0.6 |
| U13C G33A U85C | 0.22 |
| U13C U29A G93A A94U C118U A140G | 0.07 |
| U13C U20C A22G U39C | 0 |
| U13C G35U A64G A67U | 0.06 |
| U13C U14C U115A | 1.38 |
| U13C G54A G75A | 0.46 |
| U13C U39A A57U U115C | 0.24 |
| U13C U20C A67G A129G U143C | 0.77 |
| U13C A142G U143C | 1.82 |
| U13C A124U A136G | 1.49 |
| U13C A79G U96A | 0.13 |
| U13C U15C C19U A121U | 0.73 |
| U13C A129G A142U | 1.21 |
| U13C G32A A107G A121G | 1.12 |
| U13C U14C U26C G40U A64G | 0 |
| U13C U14G U73A A129U | 0.9 |
| U13C U20A A69U U81C | 0.08 |
| U13C G53A A121G | 1.07 |
| U13C U15C A79U A117U | 1.82 |

| Variant | self-cleavage |
| --- | --- |
| U13C U14C A43U U102A | 1.29 |
| U13C G34A U108C A138U A141G | 1.34 |
| U13C U14C U87A A129G | 0.16 |
| U13C A121U A138U C145U | 0.79 |
| U13C U23G U85A A136G | 0 |
| U13C A78G G83A | 0.56 |
| U13C U15C U91C | 0.27 |
| U13C G34A U47C G93C | 0 |
| U13C U29C U109C | 0.57 |
| U13C A92G U104C | 0 |
| U13C C28U A124G | 0.84 |
| U13C A121C U130C | 1.71 |
| U13C U14A A31G A43U | 0.47 |
| U13C U23C U47A A57U U112A | 0.14 |
| U13C G35U A94G A140G | 0 |
| U13C U15C C61U | 0.09 |
| U13C G21A U47C A59G G70C U108C | 0 |
| U13C U23A U100C | 0.42 |
| U13C G72A A124G | 0.76 |
| U13C C38A A64G A107G | 0.26 |
| U13C G36C A138G | 1.5 |
| U13C U26C C84U A136U | 0 |
| U13C C71U A78G | 0.3 |
| U13C U20C G32A U39A U81A | 1.46 |

| Variant | self-cleavage |
| --- | --- |
| U13C U14A A138G | 1.17 |
| U13C U14A G114A | 0.79 |
| U13C G72U U115C | 1.46 |
| U13C U29C U45C U119A | 1.08 |
| U13C G35C C113U | 0.88 |
| U13C C51G A64U U73C U87A | 0.48 |
| U13C A92U A94G | 0.13 |
| U13C U26C G83A A94C U112C A124G | 0 |
| U13C C37U U62C U108C | 0.07 |
| U13C U39A A69U A78U | 0.11 |
| U13C G34U A77G U112A A138G | 0.98 |
| U13C A141G U143G | 1.48 |
| U13C U23C A64G | 0.46 |
| U13C U26A A42G A142G | 0.68 |
| U13C G33A A50G C90U A117C | 0.08 |
| U13C C61U A69U U87C | 0.18 |
| U13C G89A A94U | 0.02 |
| U13C U23C A129G | 1.58 |
| U13C U20C U91C A142G | 0.8 |
| U13C C19U U91C | 0.78 |
| U13C G122U A136G | 0.98 |
| U13C U29C U46C U112C | 0.97 |
| U13C G60A U91C | 0.02 |
| U13C U39A U46C | 1.06 |

| Variant | self-cleavage |
| --- | --- |
| U13C G54U U108C U134A | 1.41 |
| U13C A79G A117U | 1.5 |
| U13C A79G U102C A138G | 1.06 |
| U13C U14C U62C | 0.18 |
| U13C G25U C37G | 1.4 |
| U13C A92G U130C | 0.19 |
| U13C U29A C61U U96C U115C | 0.12 |
| U13C U14G G36A A65G A142G | 0.17 |
| U13C G32U U39A U91C A92U A140G | 0.22 |
| U13C G74A U119A | 1.44 |
| U13C G36A U132G U134G | 0.74 |
| U13C U14C U20A A43G U62C C101U | 0 |
| U13C U15C U45G C90U U109C | 0.09 |
| U13C C63A A94G A124U A140G A142G | 0.07 |
| U13C U29C A94G C99A | 0 |
| U13C A78G A138G | 1.91 |
| U13C C56U U115C | 0.22 |
| U13C A94G U109C | 0.16 |
| U13C U20C U23C U132A | 0.77 |
| U13C U14C A129U | 1.22 |
| U13C U15C A59G A141G | 0.49 |
| U13C U26C C113U | 0.81 |
| U13C U23A A57U | 0.12 |
| U13C U15A U29A | 1.1 |

| Variant | self-cleavage |
| --- | --- |
| U13C U14C A138G A142G | 1.62 |
| U13C U15C G32A C84A | 0.23 |
| U13C C38U C66U | 0.09 |
| U13C G40C A43U A64G G86A U130C A140G | 0.04 |
| U13C U23A U45G G97A | 0.12 |
| U13C A78G U96C A141G | 0.45 |
| U13C U29A U96A U115C A124U A140G | 0.1 |
| U13C U26C G70A | 0.05 |
| U13C A79G U102A | 0.93 |
| U13C U15A A65U A69G | 0.13 |
| U13C U26C U39A U52C | 0.57 |
| U13C U14A A22G A64G C76U G83U | 0.28 |
| U13C G48A U73C A141G | 1.2 |
| U13C G40A U87C C123A | 0.13 |
| U13C C66A A69G U115C | 0 |
| U13C C37G A57G U96A U104G C113A | 0.1 |
| U13C C71U U108A | 0.98 |
| U13C U14C U29C A42U | 1.03 |
| U13C C128U A141G | 1.58 |
| U13C U29C U73A C90A U115C G127U | 0.06 |
| U13C A124G U134A A138G | 0.22 |
| U13C A78U U132C | 2.22 |
| U13C C19U A136U | 0.77 |

Reference: the RNAGym collection of RNA variant scans (doi:10.7554/elife.90254)
